Assay results from PubChem BioAssay AID686978 (National Center for Advancing Translational Sciences (NCATS), 2013).
The campaign covered roughly 420,000 compounds. About 64,000 (15%) were called active. The shares of active, inactive and inconclusive entries below differ from those in the screen. Calls follow the shape of the dose curve; as a rule, active = well fitted inhibition curve with a large enough effect; inconclusive = small, poorly fitted or top-dose-only effect; inactive = flat fitted curve, though single readings scatter. Potencies of inconclusive entries are left out as doubtful fits.

test: qHTS for Inhibitors of human tyrosyl-DNA phosphodiesterase 1 (TDP1): qHTS in cells in absence of CPT; settings: DT40 Tdp1-/- hTDP1 cells, no CPT, ATP luminescence, 48 h; activity change, negative = growth inhibition: at 46.2 µM (top of the series); also: nearly all actives have a fitted effect of over 55% in size
Summary of the method: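 Cells were dispensed at 400 per well, compounds added by pin tool, plates incubated ≥48 hr at 37 °C, then CellTiter-Glo added for 30 min at room temperature before luminescence reading. Line: DT40 Tdp1-/- complemented with hTDP1; camptothecin omitted.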
% is scaled to controls: 0 for no effect and ±100 for the full control effect; potency is read from the fitted curve at half-maximal effect; tags tell the direction and shape of the fitted curve.

| SMILES | activity change, negative = growth inhibition | Potency |
| --- | --- | --- |
| CCOC(=O)C1CCN(C(=O)COc2ccc(S(=O)(=O)NC(C)C)cc2)CC1 | inconclusive: -32% [inhibitor] | – |
| CC(C)c1ccc(N2C(=O)CC(Sc3ncccn3)C2=O)cc1 (stereo unspecified) | – | inconclusive [inhibitor, single point] |
| O=C1/C(=C/c2ccc(O)cc2)CCc2ccc([N+](=O)[O-])cc21 | – | active: 16.4 µM |
| O=C(CCc1ccc(O)cc1)NN=Cc1cc(Br)ccc1O | – | active: 5.8 µM |
| CCC(C(=O)NC1CCCCC1)N(C(=O)c1snc(C(N)=O)c1N)c1ccc(OC)cc1OC (stereo unspecified) | – | active: 23.1 µM |
| Cc1ccsc1-c1cc2nc(Nc3ccc(F)cc3)n(C)c(=O)c2s1 | – | inconclusive [inhibitor, single point] |
| CN(C(=O)c1ccc2c(c1)N(Cc1ccccc1F)C(=O)c1ccccc1S2(=O)=O)C1CCCCC1 | – | active: 23.1 µM |
| COc1ccc(SC[C@H](C)CN2CC[C@H](NC(=O)OCc3ccccc3)CCC2=O)cc1 | – | active: 23.1 µM |
| CCn1c(C)nc2cc(NC(=O)Nc3cccc(C(C)=O)c3)ccc21 | – | inconclusive [inhibitor, partial curve] |
| CC1CN(C(=O)Cn2cc(S(=O)(=O)CC(=O)N3CCOCC3)c3ccccc32)CC(C)O1 (stereo unspecified) | inactive: 6.78% | – |
| COC(=O)c1ccc(NC(=O)C2CC(=O)N(c3cc(C)ccc3C)C2)cc1 (stereo unspecified) | – | inconclusive [inhibitor, single point] |
| O=C(C1=C(O)C(=O)N(Cc2ccccc2)C1c1cccnc1)c1ccco1 (stereo unspecified) | inactive: 8.79% | – |
| C/C(=N/NC(=O)CNC(=O)c1cccs1)c1ccc(Cl)cc1 | inactive: -6.76% | – |
| Cc1cc2n(n1)CCC(=O)N2Cc1ccc(C(=O)Nc2ccc(Br)c(C)c2)cc1 | – | inconclusive [inhibitor, full curve, poor fit] |
| Cc1cc2oc(=O)cc(-c3ccccc3)c2c(C)c1-c1ccc(N(C)C)cc1 | – | inconclusive [inhibitor, single point] |
| Cc1ccc(CN2CC(=O)N3[C@H]4c5ccccc5OC[C@@H]4[C@H](c4ccccc4)[C@]3(C)C2=O)cc1 | – | inconclusive [inhibitor, single point] |
| COC(=O)c1ccccc1S(=O)(=O)N1CCC(C(=O)NCCC2=CCCCC2)CC1 | – | inconclusive [inhibitor, single point] |
| Cc1ccc(-c2c[n+](CC(=O)OCc3ccccc3)c3n2CCC3)cc1 | inactive: -26.9% | – |
| COc1cccc(/C=N/N=C(\N)c2nonc2N)c1O | – | active: 0.92 µM |
| COc1cc(OC)c(NS(=O)(=O)c2cn(C)cn2)cc1Cl | inactive: 8.31% | – |
| O=C(c1cc2nc(-c3cccs3)cc(C(F)(F)Cl)n2n1)N1CCCc2ccccc21 | – | inconclusive [inhibitor, single point] |
| COc1ccc(Br)c(C(=O)Nc2cccc(S(=O)(=O)N3CCOCC3)c2)c1 | – | inconclusive [inhibitor, single point] |
| CCCn1c2c(c(O)c(C(=O)NCCCN(CC)CC)c1=O)CCCC2 | – | inconclusive [inhibitor, single point] |
| COc1ccccc1-n1c(CNc2c(C)cccc2C)nnc1SCC(=O)N1CCOCC1 | – | inconclusive [inhibitor, single point] |

| SMILES | activity change, negative = growth inhibition | Potency |
| --- | --- | --- |
| Cc1[nH]n(C(N)=S)c(=O)c1N=Nc1cc(-c2ccc(Br)cc2)[nH]n1 | – | active: 2.91 µM |
| COc1ccc(NC(=O)CCN2CCN(S(=O)(=O)c3ccc(F)cc3)CC2)cc1 | inactive: 2.38% | – |
| COc1ccc(CN(C(=O)c2ccc(C)cc2)c2cccc(N)c2)cc1 | – | inconclusive [inhibitor, single point] |
| O=C(NCC(c1ccco1)N1CCc2ccccc21)c1ccccc1F (stereo unspecified) | – | inconclusive [inhibitor, partial curve] |
| CCCSc1nc2c(c(=O)[nH]1)C(c1ccc(F)cc1F)CC(=O)N2 (stereo unspecified) | – | inconclusive [inhibitor, single point] |
| CCN(CC)c1cc2c(cc1F)c(=O)c(S(=O)(=O)c1ccc(C)cc1)cn2Cc1ccc(F)cc1 | – | inconclusive [inhibitor, partial curve] |
| O=C(CNCC1(N2CCOCC2)CCCCC1)Nc1ccc(Cl)cc1 | inactive: -9.04% | – |
| O=S(=O)(Nc1cccc(-c2ccc(N3CCOCC3)nn2)c1)c1ccccc1C(F)(F)F | – | inconclusive [inhibitor, single point] |
| CC(C)Cn1c(N)c(C(=O)CSc2nncs2)c(=O)n(C)c1=O | – | inconclusive [inhibitor, single point] |
| COC1CC(N)C2OC(c3ccccc3)OCC2O1 (stereo unspecified) | inactive: -19.2% | – |
| CCC(C)(C)NC(=O)C(c1cccc(OC)c1)N(C(=O)c1ccn[nH]1)c1cccc(OC)c1 (stereo unspecified) | – | inconclusive [inhibitor, partial curve] |
| CCCCn1nc(NC(=O)COC)c2cc3cc(OC)ccc3nc21 | – | inconclusive [inhibitor, partial curve, poor fit] |
| COc1cccc(N2CCN(C(=O)C3CCCN(c4ncnc5c4nc4n5CCCCC4)C3)CC2)c1 (stereo unspecified) | – | inconclusive [inhibitor, partial curve] |
| COc1ccc(-n2c(-c3ccccc3)cc3c2CCCC3=O)cc1 | – | inconclusive [inhibitor, single point] |
| CC(=O)c1cccc(NC(=O)c2ccc(CN3CCc4ccccc4C3)cc2)c1 | inactive: -20.3% | – |
| CC(=O)c1cccc(S(=O)(=O)N2CCCC(c3nc4c(nnn4Cc4cccc(Cl)c4)c(=O)[nH]3)C2)c1 (stereo unspecified) | – | inconclusive [inhibitor, partial curve, poor fit] |
| COc1ccc2cc3cc(C(=O)Nc4cc(OC)c(OC)c(OC)c4)oc3nc2c1 | – | inconclusive [inhibitor, full curve] |
| Cc1oc(-c2cccc(Cl)c2)nc1CN1CCC(C(=O)NCc2cccnc2)CC1 | inactive: -25.1% | – |
| CC(=O)Nc1ccc(NC(=O)CSc2nc3[nH]ncc3c(=O)n2-c2ccccc2)cc1 | inactive: -22.2% | – |
| CCCN1CCN(c2ncnc3sc(C(=O)Nc4cccc(Cl)c4C)c(C)c23)CC1 | – | active: 20.6 µM |
| CN(C)CCN(Cc1ccco1)c1ccccn1 | inactive: -1.58% | – |
| CC(C)c1ccccc1Oc1c(C(F)(F)F)oc2c(CN3CCN(C)CC3)c(O)ccc2c1=O | inactive: -4.54% | – |
| Cn1c(-c2ccc(S(=O)(=O)N3CCCC3)cc2)csc1=Nc1ccc(Cl)c(Cl)c1 | – | active: 4.11 µM |
| CN(C)CCCn1c(N)c(C#N)c2nc3ccccc3nc21 | – | inconclusive [inhibitor, single point] |

| SMILES | activity change, negative = growth inhibition | Potency |
| --- | --- | --- |
| Cn1cc(C(=O)C(=O)NC2CCCCC2)c2ccccc21 | inactive: 3.54% | – |
| COc1ccc(C2CC(=O)c3cnc(NC(=O)c4ccccc4OC)nc3C2)c(OC)c1 (stereo unspecified) | – | active: 14.6 µM |
| CN(c1cccc(NC(=O)c2ccc(C(C)(C)C)cc2)c1)S(C)(=O)=O | – | active: 20.6 µM |
| COC(=O)/C=c1/sc2nc3ccccc3n2c1=O | – | inconclusive [inhibitor, partial curve] |
| CC(OC(=O)c1cnccn1)C(=O)c1ccccc1 (stereo unspecified) | inactive: -1.44% | – |
| COc1ccc(-c2nnc(Nc3nc4c(OC)cccc4s3)o2)cc1 | – | active: 18.4 µM |
| COC(=O)[C@@]12CCCN1[C@H](c1ccc(-c3ccccc3)cc1)[C@@H]1C(=O)N(C)C(=O)[C@@H]12 | – | active: 18.4 µM |
| CCOC(=O)C1=C(C)NC2=C(C(=O)CC(c3cccs3)C2)C1c1cccs1 (stereo unspecified) | – | inconclusive [inhibitor, single point] |
| O=C(CO/N=C/c1cccc([N+](=O)[O-])c1)NC1CCCCC1 | – | inconclusive [inhibitor, single point] |
| Nc1nnnn1/N=C/c1cc([N+](=O)[O-])ccc1O | inactive: -19% | – |
| COc1ccc(Cc2nnc(NC(=O)C3CC(=O)N(c4ccccc4)C3)s2)cc1OC (stereo unspecified) | inactive: -19.5% | – |
| Cc1ccc2c(c1)[C@H]1[C@H](CO2)[C@H](c2ccccc2)[C@]2(C)C(=O)Nc3cc(F)c(F)cc3C(=O)N12 | – | inconclusive [inhibitor, single point] |
| CCOc1cc(/C=N/Nc2cc(C)nc3ccc(C)cc23)ccc1O | – | active: 25.9 µM |
| Cc1occc1C(=O)NNC(=S)NCc1ccccc1 | inactive: 3.95% | – |
| CC(NC(=O)OCc1ccccc1)c1ccccc1 (stereo unspecified) | inactive: -2.79% | – |
| CCOc1ccc(CCN2C(=O)C(=O)N([C@@H](CC(C)C)CN3CCC[C@H]3CN3C(=O)C(=O)NC[C@@H]3CC(C)C)C[C@@H]2Cc2ccc(O)cc2)cc1 | – | inconclusive [inhibitor, single point] |
| CCCc1nnc(NC(=O)Cc2coc3ccc(C)cc23)s1 | inactive: 1.01% | – |
| CC(C)CNc1ncnc2c1ncn2[C@H]1CN(Cc2cccs2)C[C@@H](CO)O1 | – | inconclusive [inhibitor, single point] |
| O=C(Cn1c(=O)n(CCc2ccccc2)c(=O)c2c3c(sc21)CCCC3)Nc1ccc(F)c(F)c1 | – | inconclusive [inhibitor, partial curve] |
| Brc1ccc(CN2CCc3nc(N4CCN(c5ncccn5)CC4)ncc3C2)cc1 | – | inconclusive [inhibitor, single point] |
| CCOc1cc(C(=O)Nc2nnc(CC)s2)ccc1OCC(=O)N1CCOCC1 | – | inconclusive [inhibitor, single point] |
| COc1cc(-c2nnc(-c3ccc(N4CCOCC4)cc3)o2)cc(OC)c1OC | – | active: 5.8 µM |
| CCc1ccc(N2CCN(CCNC(=O)Nc3ccc(OC)cc3)CC2)cc1 | – | inconclusive [inhibitor, single point] |
